Data taken from PubChem BioAssay (NCATS).
The inconclusive results got no clear call from the source; some entries with a clear call stand among them for comparison. Where the call is inconclusive, the potency comes from a doubtful curve fit. The source made the active and inactive calls. Calls come from the whole dose curve; as a rule, active = well fitted inhibition curve with a large enough effect; inconclusive = small, poorly fitted or top-dose-only effect; inactive = no such curve, though single readings can be large or run the other way.

test: Primary qHTS for inhibitors of nuclear receptor binding SET domain protein 2 (NSD2) in an RCH-ACV wild type WT cells (2C) (AID 1645877); conditions: RCH-ACV (leukaemia line) NSD2 WT (2C) viability, CellTiter-Glo, 72 h; activity change, negative = cell killing: at 44.9 µM (top of the series) unless noted; series mostly up to 44.9 µM; note: nearly all actives have a fitted effect of over 70% in size
% is set by controls: 0 for no effect and ±100 for the full control effect; potency is the fitted concentration of half-maximal effect; tags give direction and shape of the fitted curve.

| SMILES | Potency | outcome | activity change, negative = cell killing |
| --- | --- | --- | --- |
| CC1=CCC2C(C)(C)CCCC2(C)C1CC12OC1C(O)C(CO)=CC2O (stereo not drawn) | inconclusive: 20.1 µM [inhibitor, single point] |  |  |
| CC(C)(O)C1CC=C(C(=O)OC[C@H]2O[C@@H](Oc3cc(C(=O)O)cc(O)c3O)[C@H](O)[C@@H](O)[C@@H]2O)CC1 (stereo partly drawn) |  | inactive [at 17.3 µM] |  |
| O=C([C@@H](Cc1cccc(C(F)(F)F)c1)NS(=O)(=O)c1cc(F)c2c(c1)CCNC2)N1CCCC1 | inconclusive: 16.6 µM [inhibitor, partial curve] |  |  |
| CCCn1cc2c(nc(NC(=O)Nc3ccc(OC)cc3)n3nc(-c4ccco4)nc23)n1 | inconclusive: 18.3 µM [inhibitor, single point] |  |  |
| Cc1ccnc(NC(=O)C(C)c2cccc(C(=O)c3ccccc3)c2)c1 (stereo not drawn) | inconclusive: 14.5 µM [inhibitor, partial curve] |  |  |
| Clc1ncoc1-c1c[nH]c2ccccc12 | inconclusive: 25.8 µM [inhibitor, single point] |  |  |
| O=C1COC2(CCN(S(=O)(=O)c3ccc(-c4ccc5cccnc5c4)cc3)CC2)CN1C1CC1 | inconclusive: 10.3 µM [inhibitor, partial curve, poor fit] |  |  |
| CCNC1(C(N)=O)CN(c2nc(C)nc3c(-c4ccc(Cl)cc4)c(-c4ccccc4Cl)nn23)C1 | inconclusive: 23 µM [inhibitor, single point] |  |  |
| Nc1nc2c(s1)CCN(Cc1ccc(Cl)cc1)CC2 | inconclusive: 16.3 µM [inhibitor, single point] |  |  |
| CCC(C)/C=C(C)/C=C/C1=CC2=C(Cl)C(=O)C(C)(OC(C)=O)C(=O)C2(O)C(OC)O1 (stereo not drawn) | inconclusive: 12.6 µM [inhibitor, single point] |  |  |
| CC(C)(C)OC(=O)c1ncn2c1C(C)(C)Nc1ccccc1-2 | inconclusive: 20.5 µM [inhibitor, single point] |  |  |
| CC1(CO)CC(O)[C@]2(C(=O)O)CCC34CC3(C=CC3[C@]5(C)C(CC[C@]34C)C(C)(CO)[C@@H](O)[C@H](O)[C@@H]5O)C2C1 (stereo partly drawn) | inconclusive: 11.2 µM [inhibitor, single point] |  |  |
| CC(=O)O[C@@]1(C)[C@@H]2CC(=C(C)C)C(=O)C[C@@]2(C)CC[C@H]1OC(=O)C1(C)OC1C (stereo partly drawn) |  |  | inactive: -18.4% |
| C=C[C@H]1[C@H](O[C@@H]2O[C@H](CO[C@@H]3OC[C@](O)(CO)[C@H]3O)[C@@H](O)[C@H](O)[C@H]2O)OC=C2C(=O)OCC[C@H]21 |  |  | inactive: -6.67% [at 17.3 µM] |
| CC(C)Nc1nc(Nc2ccccc2)nc(-c2ccccc2)n1 | inconclusive: 16.3 µM [inhibitor, partial curve, poor fit] |  |  |
| C[C@@H](O)[C@H]1C(=O)N2C(C(=O)O)=C(S[C@@H]3CN[C@H](CNS(N)(=O)=O)C3)[C@H](C)[C@H]12 |  |  | inactive: 5.82% |
| O=[N+]([O-])c1cn2c(n1)OC[C@@H](OCc1ccc(-c3ccc(OC(F)(F)F)cc3)nc1)C2 | inconclusive: 16.3 µM [inhibitor, single point] |  |  |
| COc1cc(/C=C2\CC[C@H]3COC[C@@H](c4cc(F)c(F)c(F)c4)N3C2=O)ccc1-n1cnc(C)c1 | inconclusive: 16.3 µM [inhibitor, single point] |  |  |
| Cc1ccc(Cl)c(OCC(O)CNC(C)(C)C)c1 (stereo not drawn) | inconclusive: 18.8 µM [inhibitor, partial curve, poor fit] |  |  |
| CC(C)(C)c1ccc(C(=O)CCCCl)cc1 |  | inactive |  |
| O=C(O)CCc1nccc2c1[nH]c1ccccc12 | inconclusive: 18.3 µM [inhibitor, single point] |  |  |
| O=C(O)C1=CO[C@@H](O[C@@H]2O[C@H](CO)[C@@H](O)[C@H](O)[C@H]2O)[C@@H]2C(CO)=CC[C@H]12 | inconclusive: 17.9 µM [inhibitor, single point] |  |  |
| CC(=O)SC[C@@H](Cc1ccccc1)C(=O)NCC(=O)OCc1ccccc1 | inconclusive: 33.5 µM [inhibitor, single point] |  |  |
